In series [1] the target is T1, his6-SonA, split borosin precursor SonA (Shewanella oneidensis) with N-terminal hexa-histidine tag, co-expressed with SonM.
T1 chain: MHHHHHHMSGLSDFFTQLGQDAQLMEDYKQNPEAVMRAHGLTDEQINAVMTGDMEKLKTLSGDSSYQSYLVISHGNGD

Series [2] has as its target T2, his6-SUMO-BstA, split borosin precursor BstA (Burkholderia stabilis).
T2 chain: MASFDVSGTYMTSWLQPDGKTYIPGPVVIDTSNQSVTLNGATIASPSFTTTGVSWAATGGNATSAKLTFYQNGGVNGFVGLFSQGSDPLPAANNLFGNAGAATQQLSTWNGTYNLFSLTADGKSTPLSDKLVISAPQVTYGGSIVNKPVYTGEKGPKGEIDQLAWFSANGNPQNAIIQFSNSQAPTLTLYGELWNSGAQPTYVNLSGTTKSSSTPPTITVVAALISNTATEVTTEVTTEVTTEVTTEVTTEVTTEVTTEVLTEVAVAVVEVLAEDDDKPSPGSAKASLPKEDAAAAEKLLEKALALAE

In series [3] the target is T3, his6-SUMO-StrA, split borosin precursor StrA (Streptomyces sp. NRRL S-118).
T3 chain: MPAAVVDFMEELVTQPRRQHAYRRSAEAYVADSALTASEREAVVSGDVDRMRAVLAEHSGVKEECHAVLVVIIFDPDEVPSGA

Series [4] deals with T4, his6-SUMO-RceA, split borosin precursor RceA (Rhodospirillum centenum SW).
T4 chain: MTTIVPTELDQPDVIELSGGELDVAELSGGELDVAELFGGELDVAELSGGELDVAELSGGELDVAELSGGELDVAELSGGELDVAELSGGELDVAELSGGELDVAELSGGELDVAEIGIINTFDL

Experimental findings from patent publication US20230090771A1 (REGENTS OF THE UNIVERSITY OF MINNESOTA, published 2023) are described below.

B1: split borosin alpha-N-methyltransferase SonM (Shewanella oneidensis), untagged, co-expressed with his6-SonA (enzyme)
chain: MGSLVCVGTGLQLAGQISVLSRSYIEHADIVFSLLPDGFSQRWLTKLNPNVINLQQFYAQNGEVKNRRDTYEQMVNAILDAVRAGKKTVCALYGHPGVFACVSHMAITRAKAEGFSAKMEPGISAEACLWADLGIDPGNSGHQSFEASQFMFFNHVPDPTTHLLLWQIAIAGEHTLTQFHTSSDRLQILVEQLNQWYPLDHEVVIYEAANLPIQAPRIERLPLANLPQAHLMPISTLLIPPAKKLEYNYAILAKLGIGPEDLG
notes: also called WP_011071665
Take B1: the “alpha-N-methylation of the precursor (LC-MS/MS)” value (shortened to “alpha-N-methylation”) in series [1] was “Alpha-N-methylations are observed as mass shifts in multiple fragments of the SonA core”.

B2: his6-SUMO-BstM, split borosin alpha-N-methyltransferase BstM (Burkholderia stabilis) (protein)
chain: MSEAKGRLVVIGSGIKAVSHFTLEAQAHIQQADIVLYAAADPVTDMWIESQNPNAFDLYQYYADDKARLITYVQMIERIMAEVRAGKYVCALFYGHPGVFVTPSHNAIAIARQEGFDAVMLPAVSAEDCLYADLGVDPSVPGMQIYEATDFLLRRRKVDTTANFVLWQVGCIGDLGFKFGGYKNDKFDVLLDYLEEIYGADHPAINYVANMFSGPPQIDRHVIGDYRDPEVKAKVSGISTFFIPAKDGIQSDAGMLAKLGLAKISEARRTPLICDREDYRVLADIARRNIHNHKVPPGYKYSFASDALYQTLLTLALDQRAQGEFQANPRAYLEARPGLTADERRSLLLQHTGVTRMMFKRDPDKEAVRFVGAALLDPALAREYRDRQAAAAQAVANHDIPVGEYEGVVASWLRGQGYAATPAAVTRAMEEVYTSKDHLSVA
On to B2, for which, in series [2], the “alpha-N-methylation” value is reported as “Alpha-N-methylations are observed as mass shifts in multiple fragments of the BstA core”.

B3: his6-SUMO-StrM, split borosin alpha-N-methyltransferase StrM (Streptomyces sp. NRRL S-118) (protein)
chain: MQETTGNAQLVVVGTGFRAIGDLTVEARACLEQADKVLCLIGDPLVTRHIEKLNASVETLDVHYAVGKPRSASYEDMVEHIMSELHRDQFVCVALYGHPGVFAYTGHEAIRRAREEGIAARMLPACSAEDWLFADLGLDPGERGCQSFEATDFLIRHRVFDPTGLLILWQVGVIGMIDRDPGYDARPGVTTLTDALVASYGSGHPVTVYEASPYVTAEPRTTTVPLAELPDTPLSAASTLVVPPLPPRPVDRELLARLAARR
Turning to B3, the “alpha-N-methylation” value in series [3] is on record as “Alpha-N-methylations are observed as mass shifts in multiple fragments of the StrA core”.

B4: split borosin alpha-N-methyltransferase RceM (Rhodospirillum centenum SW) (protein)
chain: MRAAPMAETETPPAAPSPSAPERPRGSLTVVGTGLRALSHMTLEAISHIRDADRVFFSVPDGVTARQIRDINPEAVDLTQYYGEDKRRKQTYVQMSEVILREVRAGSAVTAVFYGHPGFFVFPARRILSIARKEGYRAVMLPGISSLDCLMADLRVDPSVNGCQILEATDLLLRNRPIITSGHVIILQVGSVGDSAFSFTAGFRHAKRAVLFERLIEAYGEEHRSVLYLAATYPGLDGQAVVRPLGAYRDPKVLASVPPAGTLYIPAKDMLPTDMAMAEKLGMSALVGPDAPVPAGPDSYGPFEAQAIAALDHYRPSPTWRPRTASKALQRVMTLLAGTPSVAAVYRKDPARLVDLHPDLTPAERKALLSRRAGPLNAVTAPPPEGAPPTVDEAGNGNGGDAPSEGETA
As to B4, the “alpha-N-methylation” value in series [4] is listed as “Alpha-N-methylations are observed as mass shifts in multiple fragments of the RceA core”.
